Laboratory results from the supplement of paper PMC10126150.
Values marked as one replicate rest on one cluster of the flow cell; about a third of the high ones do not repeat.

Test system: ATP
Test: switch fluorescence ratio, 500 uM ATP over buffer (Cy3 cluster intensity, sum of 5 cycles each) (fold (ratio)); higher = stronger signal-on switching upon ATP binding; sequences stand for … in TCGTCGGCAGCGTCAGATGTGTATAAGAGACAGTTTTTTTTTTTTTTTTTTTTTTTTT…TC
Conditions: aptamer strand: ATP DNA aptamer (quencher-CACCTGGGGGAGTATTGCGGAGGAAGG + anchor), 100 nM annealed; ATP concentration: 500 uM; one replicate
In short: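 Cy3-labelled switching-strand clusters on a modified Illumina MiSeq flow-cell were annealed to 100 nM quencher-labelled ATP aptamer and imaged first in selection buffer, then after 15 min with 500 uM ATP at 22 °C. NaOH stripping and re-annealing separated each of five buffer/ATP cycles, and clusters outside 100-1000 RFU were excluded. The fluorescence ratio sums target-cycle Cy3 intensity over buffer-cycle Cy3 intensity per cluster and averages it per switch-domain sequence.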
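Note: ATP exposure 15 min at 22 °C before imaging.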

Sequence	switch fluorescence ratio
GGGCTGAGTG	1.03
AGACGGTTGT	1.04
ATGCGGGTCC	1.03
TAAGTGGGAT	1.03
ATTATAAGCA	1.01
TTACTTATAT	0.988
ATGAGAACT	1.03
GAGATGTGTT	0.979
GAAATCTGAG	1.22
CTGGGTACAG	0.994
GTAGAGTCTG	0.997
TCTAACAGGT	1.03
TATTAGACCC	1.06
GGTTGGCCAC	0.962
GTTTTTGGCT	1.05
CACTGCAGGT	1.03
AACCGGCTAG	0.98
GGGTACTGCC	1.02
TGTTCCCTTT	0.988
TAGGATCAAG	1
ACGAGGCCTA	1.13
TCTCGGTTA	1
GATAAGATTT	1.04
GGAAATCTGG	0.972
ACGTCTGGG	1.01
AAGGGTACTG	0.994

Sequence	switch fluorescence ratio
GGTGATTCGG	0.954
GGCGTCGTTG	0.963
AAGACAGCCG	0.981
TGTGGGTCTC	0.994
TTCTGATGTT	0.985
ATTACATTCA	1.02
AGTACGTCAT	1.11
CGTTTCTTCT	0.981
GGGTAGCTGA	0.984
CGGGAGGCTT	1.02
TGCCAATAGC	1.05
CCGGGCTGTG	1.03
CACGAGTACA	1.16
CGGTACTTAA	1.03
TAAAAACCTC	1.04
AAAACTTAAA	1
TTCTAATGTC	1.07
GGATGGCTAA	0.985
TGGGAGAACT	1.02
TAGACTAACC	1.13
GAGTAGGATA	0.996
GGTCTATAGA	1.03
ATTATCGTCT	1.02
GGGACAAGCG	0.968
CGATAGGCGC	1.04
TTTATGATCT	1.02

Sequence	switch fluorescence ratio
GCCCGCGCTT	1.04
CGGACCGGTC	1
TTGTACTCCT	1.13
TCTTGGCGGA	1.01
ACAGCCTCGA	1.02
ACGAAGGTGG	0.987
TGCGGGGGAC	1.02
CATTTCTAAT	0.996
ACTCATGCGG	1.16
CGGAATTACT	1.33
TACCGCGTT	1.06
TTGTTGTTCT	0.989
CTCGACAGTA	1.02
TTTGGTAGAT	1
CGGTTGTAGA	1.04
GGATAGGT	1.01
TAAGTGCGTG	0.976
GTGGGCTGGA	1
CCTATTTGTT	0.976
CGTTGATAG	0.942
ATAGATCAGA	1.03
CTCCCCGTGT	1.64
ACTTTTTAAA	1.03
TGTGATAATA	1.05
CGTGAGGGGA	0.998
TAGGTCTCAA	0.969

Sequence	switch fluorescence ratio
TCACGATGCT	1.02
GTATTTATC	1.03
GCTGGTAGAG	1
GGTCATTTGA	0.998
GGTGAGGCTC	1.01
CAGTGCTGGG	1.02
AGAACCAGTT	0.983
TCAGAAGTGC	1.19
AGAGTGAAGG	0.987
AGTCCACGGG	1.09
CGGGTATTG	0.981
CGGAGGTGGC	1.07
GCTGTGT	1.04
GAGTTTGCGC	1.01
CAGCGACTC	1.31
GTTGAAGGTT	0.961
TTCGCTGCGC	1.09
GTAAGGACCG	1.01
TGGTTTGAAA	1.04
ACGGTACAGG	1.45
TTCAGTTGCG	0.946
ACAAAGAGGT	0.977
ACAGACCGCC	1.3
TAAAAGGTAT	1.04
TCCTTGAACC	1.06
ACAGTTAGTT	1.02

Sequence	switch fluorescence ratio
GACGTCAGCT	1.01
GCAAGGTGCG	0.992
TGAAAAAGCC	1.04
TGCCGTGTG	0.991
AGGGACATTG	1.02
ATGTGGGGTC	0.948
GGTGCGCAAG	1.04
GCAAGTTATA	1.03
CTGATTATAG	1
ATCGAAGTGT	0.993
TTGGATCGCC	1.01
GCGGCCGGAC	0.983
AATCTTATTC	0.979
TTCGTCCTG	1.01
ACGTAGATAA	1.17
TACTGGTC	1.02
CGTTGAGCG	0.957
CTCAAATTGT	0.963
TGTATGCTAC	1.08
TAGGCGGATT	1.03
TAAGCCCTGC	0.973
GGGTACAGGC	0.974
AGTCAAGGCT	0.964
TAAGAGCGT	0.975
GCGTTGATAC	2.74
AAGCAAAGGG	1.01

Sequence	switch fluorescence ratio
CGCGGGGTGA	1.05
GTAGCTTATT	1.02
GAGAAATCCA	1.02
ATGAGGGTGG	0.936
GAAATAAGCC	1.02
ATATTTGCTA	0.962
TGTTACCGCC	1.21
AGGTACGGGC	1.05
GTGAATACCA	0.975
GCCCCTGACT	1.12
ATTCAAATCC	1.06
TGCTTTAAAA	0.961
CAGCGGCCAT	1.03
GCTATCAATG	1.03
TGGTTCGATG	0.981
ACATAGCCTC	1.05
TGACGCGGTA	1.14
GCGTTGCTTA	0.966
AAGTTAGCGT	0.964
GCCTGCTCCT	0.96
AGCACATATC	2.85
ACAGTGGGCA	1.02
GGGGTTGCAG	1.09
GTCGGGGCCA	1.01
TTCGAGCTGG	1.01
TTAATTACAC	1.01

Sequence	switch fluorescence ratio
TATTGTCTCG	1.01
GCTACTTGTG	1.04
CGCAAAGCCA	1.04
TCCGGCATCT	1.12
AATGGCAAGC	1.2
AATGGCTCGG	1.04
GGGTCATAGA	1
TTGCTAAGC	1.06
GTCCGTCGTA	0.996
TTACCTCTGT	1.01
AAAGTGCTCA	0.976
AATGGGGGTC	0.955
GAGGAGCTAT	1.05
TTATGGGGAC	0.997
CGGCAACAGG	1.27
GAGAGCCCGG	1.02
AACGAGGTAA	1.09
TTAGACGTAC	1.71
CTTGGCATG	0.981
TGGGGTCGAA	0.941
TGCTTTTATC	1.01
TCGTGGTTGT	0.989
GGCGGTTGT	0.973
ATCCTATTCT	0.998
TGTTGGGCAA	1.05
CCGCGTCTCG	1.8

Sequence	switch fluorescence ratio
AGACGCGTCG	1.01
TTGGATCTGT	0.986
TTTTCTCTTG	0.979
CGCGCAGGAG	1.24
GTGTCCTCAT	1
CCCTTCATAC	3.66
CACCGAAAGG	0.978
ATCTACTCAA	1.14
TCTGCCGATT	0.992
AGATGCGGTC	0.752
GGAGATAACG	0.981
TAGAATCGG	0.988
ACCTTACGTG	1.48
GCGTAGCCAT	1.05
TTACGAGGTA	1.04
TCACACATCG	0.997
GGTTTAAGCC	0.96
AAATTTGTAG	0.987
CGCGCAACGC	1.97
